Results: the supplement of paper PMC3334620
Whole data set: some 33,000 sequences, median “E-score (-0.5 to 0.5)” near -0.054, cut for the highest 2% near 0.39. The list shows a part of the results.

What follows are sequences tested against Ylr278c (UniProt Q05854) (assay: PBM E-score (8-mer binding enrichment) (E-score (-0.5 to 0.5)); higher = stronger / more preferred TF binding; most listed sequences are background and not binding sites). Conditions: protein concentration: 200 nM; construct: GST-DNA-binding domain.
In short: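 For each ungapped eight-base word taken together with its reverse complement, the Universal PBM Analysis Suite assigned an E-score. Binding data came from GST-tagged yeast transcription factors, applied at about 100-200 nM, on universal all-10-mer Agilent arrays made double-stranded by primer extension. Fluorescent anti-GST marked bound protein, and scans were normalised with masliner.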
In the case of AACGCTTC, the “PBM E-score” value is reported as -0.169. With CTAAAGAA the “PBM E-score” value was -0.0978. With ACCGCGGG the “PBM E-score” value was 0.299. For AGCCGCAT, the “PBM E-score” value was 0.105. CTCTAGAC was tested, and the “PBM E-score” value was -0.273. With ACATACTA the “PBM E-score” value was -0.0627. For ATGAAAAG, the “PBM E-score” value was -0.143. For CAGAAATA, the “PBM E-score” value was 0.0765. In the case of AACGGCAC, the “PBM E-score” value is reported as -0.00738. With CTCCGAAG the “PBM E-score” value was 0.479. For GAGCTCGA, the “PBM E-score” value was -0.0304. In the case of ATGCCCTC, the “PBM E-score” value is reported as 0.00094. With CTACAGAA the “PBM E-score” value was -0.124. For CCTTTGTC, the “PBM E-score” value was -0.0567. In the case of ATCATCGC, the “PBM E-score” value is reported as -0.07. In the case of CCCTTGTA, the “PBM E-score” value is reported as -0.129. In the case of TAGGCACA, the “PBM E-score” value is reported as -0.228. With GTGATTTA the “PBM E-score” value was 0.108. In the case of TCCGGGAA, the “PBM E-score” value is reported as 0.419. For CAGAGATC, the “PBM E-score” value was -0.103. AATTTTTG was tested, and the “PBM E-score” value was -0.187. In the case of AATCGTGG, the “PBM E-score” value is reported as -0.157. CCCTCACG was tested, and the “PBM E-score” value was -0.114. For GCATGCCC, the “PBM E-score” value was 0.171. For GGGTTGAC, the “PBM E-score” value was 0.0106. In the case of AAAAGGAG, the “PBM E-score” value is reported as -0.0927. AGACGACG was tested, and the “PBM E-score” value was -0.0891. For ATCCAGTA, the “PBM E-score” value was -0.111. For AAGTCAAA, the “PBM E-score” value was -0.0444. With TGAGGACA the “PBM E-score” value was -0.364. In the case of AAGCACGG, the “PBM E-score” value is reported as 0.0376. GCTCGCAC was tested, and the “PBM E-score” value was 0.0852. In the case of CGGCCGGA, the “PBM E-score” value is reported as 0.424. TCTAACCA was tested, and the “PBM E-score” value was -0.147. For CCTACAGC, the “PBM E-score” value was -0.0683. In the case of AAACATTA, the “PBM E-score” value is reported as -0.158. In the case of CCCACAGG, the “PBM E-score” value is reported as -0.127. CCGCTTAG was tested, and the “PBM E-score” value was 0.164. With TACGCATA the “PBM E-score” value was -0.0249. With CTTGTCGC the “PBM E-score” value was 0.03. With TATCGAAA the “PBM E-score” value was -0.0101. In the case of ACTGAGAT, the “PBM E-score” value is reported as -0.265. With AACTAAAG the “PBM E-score” value was -0.202. In the case of AGGGAACA, the “PBM E-score” value is reported as -0.0968. AAATATGG was tested, and the “PBM E-score” value was -0.11. With CTTGGGCC the “PBM E-score” value was -0.165. For ATCAAGGG, the “PBM E-score” value was -0.1. In the case of CAGGATTA, the “PBM E-score” value is reported as -0.0302. For GTATCAAC, the “PBM E-score” value was 0.0272. With CGAGCACC the “PBM E-score” value was 0.0601. In the case of ACGACGAT, the “PBM E-score” value is reported as 0.0583. In the case of CAGAGATG, the “PBM E-score” value is reported as -0.246. In the case of CATCTTCA, the “PBM E-score” value is reported as -0.2. For CCTGACTC, the “PBM E-score” value was -0.101. For AGACCTTC, the “PBM E-score” value was -0.202. GCCCATCA was tested, and the “PBM E-score” value was -0.238. For AACTGAAA, the “PBM E-score” value was -0.108. For CCCAAGAC, the “PBM E-score” value was -0.0804. In the case of CTCTCGCA, the “PBM E-score” value is reported as -0.218. GCGCCCGC was tested, and the “PBM E-score” value was 0.116. For GCGATCCC, the “PBM E-score” value was 0.0902. In the case of TCAATTGA, the “PBM E-score” value is reported as 0.16. In the case of CCAGCGCG, the “PBM E-score” value is reported as -0.0217. With CATCGGTC the “PBM E-score” value was 0.15. In the case of GCAAGAAC, the “PBM E-score” value is reported as -0.165. With TATACGAA the “PBM E-score” value was 0.077. For GGCCAACC, the “PBM E-score” value was 0.00777. For ACACTCCT, the “PBM E-score” value was -0.0208. AATGATAA was tested, and the “PBM E-score” value was 0.0641. In the case of AATTCCAC, the “PBM E-score” value is reported as 0.187. TCTGGCCA was tested, and the “PBM E-score” value was -0.169. With ATGGGGCG the “PBM E-score” value was 0.0403. For ATCGACGC, the “PBM E-score” value was -0.024. GCGATACC was tested, and the “PBM E-score” value was -0.017. CCTTAGCA was tested, and the “PBM E-score” value was -0.0796. With AGAACTGA the “PBM E-score” value was -0.132. In the case of GGCCAGAC, the “PBM E-score” value is reported as 0.067. GGATTAAA was tested, and the “PBM E-score” value was 0.236. GCGGTTGA was tested, and the “PBM E-score” value was 0.0798. In the case of ATTTAGTA, the “PBM E-score” value is reported as 0.0902. AAACGTAT was tested, and the “PBM E-score” value was -0.0445. With ACTGGCAA the “PBM E-score” value was -0.119. In the case of ACCGTAAA, the “PBM E-score” value is reported as 0.0522. GCGCAAAA was tested, and the “PBM E-score” value was 0.0206. With AAATGTGG the “PBM E-score” value was 0.095. With AAGTTCAT the “PBM E-score” value was 0.154. In the case of CACGTTGC, the “PBM E-score” value is reported as -0.194. With AGGGAGTA the “PBM E-score” value was -0.114. With GGACCCCC the “PBM E-score” value was 0.164. For GAGCGCGC, the “PBM E-score” value was 0.182. For AGGCGGCC, the “PBM E-score” value was 0.0798. For AGGTCGAC, the “PBM E-score” value was -0.181. ACTTGCAC was tested, and the “PBM E-score” value was -0.0281. AGACCACC was tested, and the “PBM E-score” value was -0.311. In the case of AGCGCGGA, the “PBM E-score” value is reported as 0.325. In the case of CTTTGCCC, the “PBM E-score” value is reported as -0.139. With ACGCACTA the “PBM E-score” value was -0.166. CCCCTGAA was tested, and the “PBM E-score” value was -0.144. ATGTATGG was tested, and the “PBM E-score” value was -0.288. With AGACCCCC the “PBM E-score” value was -0.114. For ATCTATTA, the “PBM E-score” value was -0.0154. CATCCAAG was tested, and the “PBM E-score” value was -0.144. With GCTAGTTA the “PBM E-score” value was -0.0866. CCTTCAAG was tested, and the “PBM E-score” value was -0.169. AGCACGAT was tested, and the “PBM E-score” value was -0.125. For AAGGGTAG, the “PBM E-score” value was -0.213. GCAGAATA was tested, and the “PBM E-score” value was -0.00392. With CAACTCAC the “PBM E-score” value was -0.234. With ACGAGCCC the “PBM E-score” value was -0.122. For ATTCTATG, the “PBM E-score” value was -0.0868. In the case of AGGATATG, the “PBM E-score” value is reported as -0.0514. With ATACCGAA the “PBM E-score” value was 0.2. In the case of TGAACAAA, the “PBM E-score” value is reported as 0.107. In the case of CAGTCTGG, the “PBM E-score” value is reported as -0.243. In the case of ATACGGGC, the “PBM E-score” value is reported as 0.0151. In the case of ATGTTCAA, the “PBM E-score” value is reported as 0.0484. For CGTGGTTA, the “PBM E-score” value was -0.335. For CCGCCTTA, the “PBM E-score” value was 0.00602. ACAATGCA was tested, and the “PBM E-score” value was -0.0752. For CAGGTTGG, the “PBM E-score” value was -0.138. For CCGCACGG, the “PBM E-score” value was 0.254. CGAAAGCC was tested, and the “PBM E-score” value was 0.0675. For AAGTTCCT, the “PBM E-score” value was -0.0671. AGTACTAA was tested, and the “PBM E-score” value was -0.231. In the case of AAGACACG, the “PBM E-score” value is reported as 0.00593. AGTCCGTC was tested, and the “PBM E-score” value was 0.381. With AGATTCCA the “PBM E-score” value was -0.09. For ACGATGCA, the “PBM E-score” value was -0.0494. With ATAGTAGA the “PBM E-score” value was -0.0513. For ACTGTTGA, the “PBM E-score” value was -0.0774. AGTATCTG was tested, and the “PBM E-score” value was -0.207. For TATATGAA, the “PBM E-score” value was -0.17. In the case of GAGGTATA, the “PBM E-score” value is reported as -0.112. ATCAGACC was tested, and the “PBM E-score” value was -0.0364. GATGTAGC was tested, and the “PBM E-score” value was -0.145. With GGAAGTCC the “PBM E-score” value was 0.307. AATGAGCT was tested, and the “PBM E-score” value was -0.0278. For ATCGCAAC, the “PBM E-score” value was -0.13. With AATATGCA the “PBM E-score” value was -0.0551. For AAAGGCTC, the “PBM E-score” value was -0.148. For ACCTCTTA, the “PBM E-score” value was 0.176. For TCTCACAA, the “PBM E-score” value was -0.0311. With CTGATTCA the “PBM E-score” value was -0.0744. In the case of CAGTTGGA, the “PBM E-score” value is reported as -0.0915. With GACTATCA the “PBM E-score” value was -0.204. CGTCGATA was tested, and the “PBM E-score” value was 0.0682. ATCAAAAC was tested, and the “PBM E-score” value was -0.0195. For GAAGAGTC, the “PBM E-score” value was -0.136. For CCCTGATA, the “PBM E-score” value was -0.265. In the case of ATGTTAAA, the “PBM E-score” value is reported as -0.083. In the case of CATTGCCC, the “PBM E-score” value is reported as -0.133. In the case of ACGGATGG, the “PBM E-score” value is reported as 0.0858. For ACGAGGGC, the “PBM E-score” value was 0.0615. In the case of GCCTCATA, the “PBM E-score” value is reported as -0.00634. AGTAATCC was tested, and the “PBM E-score” value was 0.0754. For AGGGCGAG, the “PBM E-score” value was -0.148. With ACTGGTCG the “PBM E-score” value was -0.143. In the case of GACAGCAA, the “PBM E-score” value is reported as -0.142. With CGGTAAAG the “PBM E-score” value was 0.232. CTGGACCC was tested, and the “PBM E-score” value was -0.204. ACGATCTA was tested, and the “PBM E-score” value was -0.3. For ACTCAAGC, the “PBM E-score” value was -0.0206. With GATCGCAC the “PBM E-score” value was -0.0452. For CCACCACC, the “PBM E-score” value was -0.108. For AATTGAAT, the “PBM E-score” value was -0.0912. In the case of CTACCACC, the “PBM E-score” value is reported as -0.0691. In the case of GTGACCCA, the “PBM E-score” value is reported as -0.153. With CGTGCACG the “PBM E-score” value was 0.109. For ATCCGCGG, the “PBM E-score” value was 0.362. In the case of CGACCACC, the “PBM E-score” value is reported as 0.0671. GATGTTTA was tested, and the “PBM E-score” value was 0.029. In the case of ATAATAGA, the “PBM E-score” value is reported as -0.119.
